The record followed here is patent US20250144066A1, “Prevention and Treatment of Parasitic Infections” (priority 2017, published 2025).

SMILES strings stand for the structures.

This assay deals with Human papillomavirus11.

Regarding `COc1c(C)c2c(c(O)c1C/C=C(\C)CCC(=O)O)C(=O)OC2` [EP1601, 6-(4-hydroxy-6-methoxy-7-methyl-3-oxo-1,3-dihydroisobenzofuran-5-yl)-4-methyl-hex-4-enoic acid], the “activity against HPV 11” value was “active”.
